Test results as given in PubChem BioAssay AID2147 (National Center for Advancing Translational Sciences (NCATS), 2009).
Out of some 230,000 compounds screened, about 3,600 (1.6%) were called active. The inconclusive results got no clear call from the source; some entries with a clear call stand among them for comparison. The call rests on the fitted dose curve; in most records, active means well fitted inhibition curve with a large enough effect (not every such curve was filed as active); inconclusive means small, poorly fitted or top-dose-only effect, or another doubt; inactive means no such curve, though single readings can be large or run the other way. Where the call is inconclusive, the potency comes from a doubtful curve fit.

Each compound was assayed against Lysine-specific demethylase 4E (Homo sapiens) (UniProt B2RXH2) (assay: qHTS Assay for Inhibitors of Human Jumonji Domain Containing 2E (JMJD2E)). Conditions: JMJD2E catalytic domain, FDH-coupled NADH fluorescence (FDH is formaldehyde dehydrogenase); series mostly up to 57.1 µM; activity change, negative = inhibition: at the top concentration.
Chain of UniProt B2RXH2 (B2RXH2 whole entry, looked up, the tested form may be a part): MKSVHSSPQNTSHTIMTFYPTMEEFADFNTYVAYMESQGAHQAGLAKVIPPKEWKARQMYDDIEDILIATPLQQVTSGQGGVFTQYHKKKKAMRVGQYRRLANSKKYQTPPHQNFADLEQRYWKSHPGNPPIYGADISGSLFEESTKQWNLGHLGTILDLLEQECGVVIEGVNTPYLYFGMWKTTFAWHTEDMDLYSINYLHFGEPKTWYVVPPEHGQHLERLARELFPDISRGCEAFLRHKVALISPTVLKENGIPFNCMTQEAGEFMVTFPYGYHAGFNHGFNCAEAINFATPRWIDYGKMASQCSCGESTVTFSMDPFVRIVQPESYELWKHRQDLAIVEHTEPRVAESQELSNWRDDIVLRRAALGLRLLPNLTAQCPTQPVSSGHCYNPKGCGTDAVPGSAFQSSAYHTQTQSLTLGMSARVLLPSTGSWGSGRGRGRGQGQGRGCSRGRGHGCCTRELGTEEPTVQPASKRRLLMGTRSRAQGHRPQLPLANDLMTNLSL
Further: nearly all actives have a fitted effect of over 50% in size.
Potency means the concentration at half of the fitted maximal effect; tags describe the fitted curve by direction and shape.
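Wherever activity change, negative = inhibition is given: 0% = wells with enzyme and -100% = buffer wells without enzyme.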

Compound	Potency	activity change, negative = inhibition
COc1ccc2[nH]c(=O)c(CN(Cc3ccc(C)cc3)Cc3nnnn3CC3CCCO3)cc2c1 (centres undefined)	inconclusive: 25.1 µM [inhibitor, partial curve]	
CC1=C(C#N)C(c2cccnc2)C2=C(CCCC2=O)N1 (centres undefined)	inconclusive: 28.2 µM [inhibitor, partial curve]	
COc1ccc(NC(=O)CSc2ccc(-c3ccccn3)nn2)cc1OC	inconclusive: 39.8 µM [inhibitor, single point]	
CCN(CC)c1ccc(/C=N/NC(=O)OC(C)(C)C)cc1	inconclusive: 35.5 µM [inhibitor, partial curve]	
O=C(CSc1nc2ccsc2c(=O)n1CC1CCC(C(=O)O)CC1)c1ccc(F)cc1 (centres undefined)		inactive: -12.4%
COc1ccc(/C(C)=C2\SC(=S)N(CCC(=O)O)C2=O)cc1		inactive: -1.71%
COC(=O)c1c(NC(=O)c2cccs2)sc2c1CCC(C)C2 (centres undefined)	inconclusive: 12.6 µM [inhibitor, partial curve]	
NC(=O)c1nn(-c2ccccc2)nc1NC(=O)CN1CCOCC1	inconclusive: 15.8 µM [inhibitor, partial curve]	
CCOc1ccc(C2C(C(=O)OC)=CN(CCOC)C=C2C(=O)OC)cc1	inconclusive: 28.2 µM [inhibitor, partial curve]	
COc1cc2[nH]c(=O)n(CCC(=O)NC3CCN(Cc4ccccc4)CC3)c(=O)c2cc1OC	inconclusive: 14.1 µM [inhibitor, single point]	
CC(=O)c1ccc(OCCCN2CCCCC2)cc1	inconclusive: 31.6 µM [inhibitor, single point]	
CC(=O)c1c(N2CCOCC2)nc2ccc(Br)cc2c1-c1ccccc1		inactive: 3.09%
COC(=O)c1c(-c2cccs2)csc1NC(=O)CSc1ncnc2sc(C)c(C)c12	inconclusive: 39.8 µM [inhibitor, single point]	
c1ccc(Cn2ccc(-c3cnc(-c4ccccc4)s3)n2)cc1	inconclusive: 28.2 µM [inhibitor, partial curve]	
O=C(N/N=C/c1cc(Br)ccc1O)Nc1ccccc1	inconclusive: 31.6 µM [inhibitor, single point]	
Cc1c(C(=O)OCC(=O)N(CCC#N)c2ccccc2)oc2c1ccc1ccccc12	inconclusive: 28.2 µM [inhibitor, partial curve]	
CCOC(=O)Cn1c(CCC(=O)O)ccc1-c1ccc(F)cc1	inconclusive: 25.1 µM [inhibitor, partial curve]	
COc1cccc(NC(=O)C2CC2(c2cccc(OC)c2)c2cccc(OC)c2)c1 (centres undefined)		inactive: -5.66%
CSc1ncccc1C(=O)OCc1ccccc1Cl		inactive: 3.57%
